The values below come from publication PMC4336329 (PLoS ONE, 2015).

The campaign covered roughly 310,000 compounds. About 14,000 (4.5%) showed an effect of 50% or more. Effects have a minus sign here. The list shows a part of the results.
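Further: peak tail current of the secondary pulse compared with the same well before compound.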

Chain of human ether-à-go-go-related gene (hERG) potassium channel (Q12809 whole entry, looked up): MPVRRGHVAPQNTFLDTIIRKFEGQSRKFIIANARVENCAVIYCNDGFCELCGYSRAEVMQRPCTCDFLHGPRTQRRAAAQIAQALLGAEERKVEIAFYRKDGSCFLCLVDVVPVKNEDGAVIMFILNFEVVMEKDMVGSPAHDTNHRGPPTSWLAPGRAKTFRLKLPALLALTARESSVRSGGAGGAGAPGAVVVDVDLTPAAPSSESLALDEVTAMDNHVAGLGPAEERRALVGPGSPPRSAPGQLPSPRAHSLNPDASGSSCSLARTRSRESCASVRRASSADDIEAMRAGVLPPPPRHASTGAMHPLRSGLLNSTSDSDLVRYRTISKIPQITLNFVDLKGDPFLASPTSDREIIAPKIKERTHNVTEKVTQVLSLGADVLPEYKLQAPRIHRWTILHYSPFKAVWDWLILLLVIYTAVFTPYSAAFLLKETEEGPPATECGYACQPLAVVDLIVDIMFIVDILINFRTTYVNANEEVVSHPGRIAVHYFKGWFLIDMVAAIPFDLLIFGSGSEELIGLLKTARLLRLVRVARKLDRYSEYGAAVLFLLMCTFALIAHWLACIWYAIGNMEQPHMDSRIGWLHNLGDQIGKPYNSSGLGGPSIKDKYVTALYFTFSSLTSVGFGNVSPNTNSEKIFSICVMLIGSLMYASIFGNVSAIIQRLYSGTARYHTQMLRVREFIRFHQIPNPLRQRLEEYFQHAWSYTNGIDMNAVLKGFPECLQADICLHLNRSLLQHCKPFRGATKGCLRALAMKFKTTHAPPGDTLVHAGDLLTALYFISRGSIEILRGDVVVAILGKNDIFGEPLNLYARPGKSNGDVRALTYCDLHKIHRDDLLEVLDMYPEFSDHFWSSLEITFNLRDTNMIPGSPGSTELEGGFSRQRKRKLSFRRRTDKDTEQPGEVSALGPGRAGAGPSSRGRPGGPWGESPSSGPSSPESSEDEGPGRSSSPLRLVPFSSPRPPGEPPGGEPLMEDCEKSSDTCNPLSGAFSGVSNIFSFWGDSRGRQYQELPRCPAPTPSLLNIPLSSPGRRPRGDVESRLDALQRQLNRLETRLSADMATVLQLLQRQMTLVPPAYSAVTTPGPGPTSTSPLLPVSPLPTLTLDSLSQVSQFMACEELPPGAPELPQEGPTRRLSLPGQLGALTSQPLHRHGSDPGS

The experiment has as its target human ether-à-go-go-related gene (hERG) potassium channel (human, UniProt Q12809). The experiment in a line: primary screen, population patch clamp on CHO cells stably expressing hERG.
For `Cn1c(=O)c2c(nc(Cl)n2Cc2ccc(Cl)c(Cl)c2)n(C)c1=O`, the “hERG current change (%, negative = inhibition) at 10uM” value is -10.4%.

For the molecule `COCCNc1nc(C)cc(-c2cc(C(=O)Nc3ccccc3)on2)n1`, the “hERG current change (%, negative = inhibition) at 10uM” value was -10.7%.

Turning to `CC(C)C(=O)Nc1cccc(NC(=O)c2cccc([N+](=O)[O-])c2)c1`, the “hERG current change (%, negative = inhibition) at 10uM” value was -30.9%.

For the molecule `COCCn1c(-c2cccc([N+](=O)[O-])c2)nc2c1c(=O)[nH]c(=O)n2Cc1ccccc1`, the “hERG current change (%, negative = inhibition) at 10uM” value is recorded as -84.2%.

With `CNC(=O)c1ccsc1NC(=O)CCS(=O)(=O)c1ccc(F)cc1`, the “hERG current change (%, negative = inhibition) at 10uM” value was -26.7%.

Consider `CC(=O)N1CCN(Cc2nc(C(c3ccccc3)c3ccccc3)no2)CC1`, for which the “hERG current change (%, negative = inhibition) at 10uM” value is reported as 10.8%.

For `COc1ccc(-c2nnn(CC(=O)NCCc3c[nH]c4ccccc34)n2)cc1OC`, the “hERG current change (%, negative = inhibition) at 10uM” value was -5.64%.

Consider `COc1ccc(N2CCN(C(=O)CNS(=O)(=O)c3ccc(C)cc3)CC2)cc1`, for which the “hERG current change (%, negative = inhibition) at 10uM” value is given as -9.12%.

For `COc1ccc(C(=O)c2ccccc2Cl)cc1`, the “hERG current change (%, negative = inhibition) at 10uM” value is on record as -34.5%.

Consider `Nc1nnc(-c2ccc(Cl)c([N+](=O)[O-])c2)s1`, for which the “hERG current change (%, negative = inhibition) at 10uM” value was found to be 3.2%.

For the molecule `CCc1noc(C)c1C(=O)N(CCCOC)c1c(N)n(Cc2ccccc2)c(=O)[nH]c1=O`, the “hERG current change (%, negative = inhibition) at 10uM” value was found to be 27.3%.

Regarding `Cc1cccc(-n2ncc3c2CCCC3NC(=O)CCCN2CCCCC2=O)c1C` (stereo not shown), the “hERG current change (%, negative = inhibition) at 10uM” value is 12.7%.

For `COc1ccc(-c2cc(=O)n(-c3nc4ccccc4[nH]3)[nH]2)cc1`, the “hERG current change (%, negative = inhibition) at 10uM” value is -53.1%.

Regarding `O=C1NCCN/C1=C\C(=O)c1ccc(F)cc1`, the “hERG current change (%, negative = inhibition) at 10uM” value is reported as 15.3%.

In the case of `O=C(NC(=S)Nc1ccc(N2CCCC2)cc1)c1ccc(F)cc1`, the “hERG current change (%, negative = inhibition) at 10uM” value is on record as 13.7%.

Turning to `Cc1cc(C)cc(NC(=O)C2CCCC2)c1`, the “hERG current change (%, negative = inhibition) at 10uM” value is 18.1%.

As for `CC(C)[C@H](N)c1nnc(SC/C=C/c2ccccc2)o1.Cl`, the “hERG current change (%, negative = inhibition) at 10uM” value is listed as -6.84%.

As to `O=[N+]([O-])c1ccc2[nH]ncc2c1`, the “hERG current change (%, negative = inhibition) at 10uM” value is given as 12.3%.

For the molecule `CC(=O)N1CCN(C(=O)c2ccc(NS(=O)(=O)c3cc(C)ccc3C)cc2)CC1`, the “hERG current change (%, negative = inhibition) at 10uM” value worked out at 9.15%.

As for `CCN1CCN(c2cc(C)c3cc(NC(=S)NCCCOC)ccc3n2)CC1`, the “hERG current change (%, negative = inhibition) at 10uM” value is 5.8%.

For `COc1nnc(-c2ccc(N3CCCCC3)c(NC(C)=O)c2)c2ccccc12`, the “hERG current change (%, negative = inhibition) at 10uM” value is given as -1.44%.

As for `O=C(Nc1ccc2snnc2c1)N1CCSCC1`, the “hERG current change (%, negative = inhibition) at 10uM” value stood at 6.76%.

As to `O=C(c1ccc(Cl)s1)N1CCN(c2ncccn2)CC1`, the “hERG current change (%, negative = inhibition) at 10uM” value is -12.3%.

For the molecule `O=C1/C(=C/c2ccc3c(c2)OCO3)Oc2cc(OCC(=O)N3CC(O)C[C@H]3C(=O)O)ccc21` (stereo partly shown), the “hERG current change (%, negative = inhibition) at 10uM” value was -2.54%.

Regarding `COc1cc2c(cc1OC)C(c1cc3cc4c(cc3[nH]c1=O)OCO4)N(C(=O)C(C)C)CC2` (stereo not shown), the “hERG current change (%, negative = inhibition) at 10uM” value was -4.79%.

With `CCCNC(=O)CSc1nnc(C)s1`, the “hERG current change (%, negative = inhibition) at 10uM” value is given as 2.8%.

As for `CCCc1cn(S(=O)(=O)c2ccc(OC)cc2OC)nc1N`, the “hERG current change (%, negative = inhibition) at 10uM” value is on record as -11.6%.

Consider `O=C(NCC1(N2CCCCC2)CCCCC1)c1cccc(NS(=O)(=O)c2ccccc2)c1`, for which the “hERG current change (%, negative = inhibition) at 10uM” value is -64.4%.

As to `Fc1ccccc1CSc1nncn1NC/C=C/c1ccccc1`, the “hERG current change (%, negative = inhibition) at 10uM” value was -4.88%.

With `CC1C(C(=O)Nc2ccccc2)CCCC1(C)C(=O)O` (stereo not shown), the “hERG current change (%, negative = inhibition) at 10uM” value is recorded as -8.15%.

`COc1ccc(CCN2C(=O)C3C4C=CC(C5CC45)C3C2=O)cc1OC` (stereo not shown): the “hERG current change (%, negative = inhibition) at 10uM” value is on record as -0.203%.

Turning to `CC1(C)CC(N2CCCC2)=CC(=[N+]2CCCC2)C1.[I-]`, the “hERG current change (%, negative = inhibition) at 10uM” value is listed as -12.1%.

Take `COc1ccc(CCNC(=O)C2CCCN(c3nc4ccccc4s3)C2)cc1OC` (stereo not shown): the “hERG current change (%, negative = inhibition) at 10uM” value is given as 5.33%.

As for `O=C(NC1CCCC1)C(c1ccccn1)N(C(=O)c1csnn1)c1ccccc1` (stereo not shown), the “hERG current change (%, negative = inhibition) at 10uM” value is 16.1%.

In the case of `CC(=O)/C(=N/Nc1ccccc1)Sc1nnc(CCc2ccccc2)n1-c1ccccc1`, the “hERG current change (%, negative = inhibition) at 10uM” value is -30.7%.

As to `Cc1ccc(C)c(-n2c(Cc3cc(=O)[nH]c(=O)[nH]3)nnc2SCC(=O)NCC2CCCO2)c1` (stereo not shown), the “hERG current change (%, negative = inhibition) at 10uM” value is given as 1.39%.

In the case of `Cc1ccc(CSc2ncnc3onc(C)c23)cc1`, the “hERG current change (%, negative = inhibition) at 10uM” value is listed as 5.18%.

Consider `O=C(O)[C@@H](O)c1ccccc1`, for which the “hERG current change (%, negative = inhibition) at 10uM” value worked out at 6.63%.

For `O=C(Nc1ccc(S(=O)(=O)Nc2cnc3ccccc3n2)cc1)c1ccc(F)cc1`, the “hERG current change (%, negative = inhibition) at 10uM” value is given as -3.77%.

With `Cn1c(Cn2c(=O)sc3ccccc32)nnc1SCC(=O)NCC1CCCO1` (stereo not shown), the “hERG current change (%, negative = inhibition) at 10uM” value turned out to be 8.76%.

Turning to `CC(C)CN(C(=O)COC(=O)c1ccc(-c2ccccc2)cc1)C1CCS(=O)(=O)C1` (stereo not shown), the “hERG current change (%, negative = inhibition) at 10uM” value was 17.5%.

Turning to `O=C(CSCc1ccccc1)N/N=C/c1ccc(OCC(=O)N2CCCCC2)cc1`, the “hERG current change (%, negative = inhibition) at 10uM” value is reported as 8.35%.

`CCCNC(=O)Nc1ccccc1C(=O)Nc1ccc(OC)cc1`: the “hERG current change (%, negative = inhibition) at 10uM” value was determined as 2.77%.
